Hit rate of the full screen: of about 310,000 compounds, about 2,200 (0.71%) showed an effect of 50% or more. Effects have a minus sign here. Some of the results follow.
target: human ether-à-go-go-related gene (hERG) potassium channel (human, UniProt Q12809); assay: primary screen, population patch clamp on CHO cells stably expressing hERG
Sequence (Q12809 whole entry, looked up): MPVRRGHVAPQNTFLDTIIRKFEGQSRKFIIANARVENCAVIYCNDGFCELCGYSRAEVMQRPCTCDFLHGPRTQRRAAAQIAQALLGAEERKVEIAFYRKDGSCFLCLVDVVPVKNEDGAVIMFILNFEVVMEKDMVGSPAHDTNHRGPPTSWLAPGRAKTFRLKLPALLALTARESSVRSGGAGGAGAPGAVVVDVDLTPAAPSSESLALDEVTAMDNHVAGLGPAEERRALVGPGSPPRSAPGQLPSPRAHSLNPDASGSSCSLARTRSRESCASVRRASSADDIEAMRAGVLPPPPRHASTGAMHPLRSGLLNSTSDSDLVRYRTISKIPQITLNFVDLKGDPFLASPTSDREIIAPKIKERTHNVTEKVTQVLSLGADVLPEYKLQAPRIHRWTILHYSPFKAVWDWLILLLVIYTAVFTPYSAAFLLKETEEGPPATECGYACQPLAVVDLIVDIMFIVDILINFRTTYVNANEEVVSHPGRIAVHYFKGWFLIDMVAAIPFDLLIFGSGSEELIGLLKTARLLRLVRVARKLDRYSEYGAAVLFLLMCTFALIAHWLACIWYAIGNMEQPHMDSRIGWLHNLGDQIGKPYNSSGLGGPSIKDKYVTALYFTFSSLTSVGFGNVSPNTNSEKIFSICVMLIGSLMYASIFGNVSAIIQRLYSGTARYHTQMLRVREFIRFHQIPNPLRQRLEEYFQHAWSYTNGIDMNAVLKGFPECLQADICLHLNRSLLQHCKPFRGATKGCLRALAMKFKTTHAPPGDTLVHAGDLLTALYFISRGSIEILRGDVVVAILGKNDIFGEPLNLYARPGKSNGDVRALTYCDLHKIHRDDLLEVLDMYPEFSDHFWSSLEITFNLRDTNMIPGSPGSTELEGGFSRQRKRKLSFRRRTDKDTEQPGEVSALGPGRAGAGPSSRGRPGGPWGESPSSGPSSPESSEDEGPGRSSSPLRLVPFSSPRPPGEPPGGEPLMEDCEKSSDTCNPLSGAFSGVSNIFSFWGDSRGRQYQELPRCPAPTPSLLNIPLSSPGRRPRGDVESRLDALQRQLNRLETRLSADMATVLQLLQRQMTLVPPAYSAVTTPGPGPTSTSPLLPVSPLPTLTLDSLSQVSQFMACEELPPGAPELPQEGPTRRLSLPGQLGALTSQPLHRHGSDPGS

Structure (SMILES) | hERG current change (%, negative = inhibition) at 1uM
COc1ccccc1OCC(=O)N/N=C1\CCc2ccccc21 | 0.112%
COc1ccccc1C(=O)NNC(=O)c1ccc(NS(=O)(=O)c2cccs2)cc1 | 11.2%
Cc1cccc(C)c1NC(=O)CNCC(=O)Nc1c(C)cccc1C.Cl | 13.5%
NC(=O)c1cc2ccccc2oc1=NCc1ccccc1 | 7.25%
O=C(NCc1ccccc1)NC1(C(=O)N2CCCC2)CCCCC1 | -0.637%
O=C(CN1CCC(C(=O)c2cccc(Cl)c2)CC1)Nc1ccc(C(=O)O)cc1 | 15.4%
CC(C)C1N(c2ccccc2)C(N)=C(C#N)C1(C#N)C#N (centres unmarked) | 10.9%
O=[N+]([O-])c1ccc2nc(-c3ccccc3[N+](=O)[O-])[nH]c2c1 | 23.6%
CCn1nc(C(=O)Nc2ccccc2C)c(Cl)c1Cl | 16%
COc1ccc(C(=O)Nc2cc(C)on2)cc1[N+](=O)[O-] | 11.7%
O=C(Cc1cccs1)N1CCN(c2ccccn2)CC1 | 2.15%
O=[N+]([O-])c1cccc(N(CC2CO2)S(=O)(=O)c2ccccc2)c1 (centres unmarked) | 9.68%
O=C(NCc1cccs1)c1cccc(N2CCCC2=O)c1 | 14%
NS(=O)(=O)c1ccc(-c2ccc(/C=C3\SC(=S)N(C4CCS(=O)(=O)C4)C3=O)o2)cc1 (centres unmarked) | 10.9%
COc1ccc(C)cc1NC(=O)CN1CCN(S(=O)(=O)c2ccc3ccccc3c2)CC1 | 11.9%
O=C(CSc1oc(-c2ccco2)nc1S(=O)(=O)c1ccc(Cl)cc1)NCC1CCCO1 (centres unmarked) | -2.02%
Cc1cccc(NC(=O)c2c(C)cc(=O)oc2C)n1 | 14.9%
Nc1c(C(=O)c2ccccc2)sc2snc(SCC(=O)c3ccccc3)c12 | 14.8%
CC(O)C[NH+]=c1cc(-c2ccccc2)oc2ccc(Cl)cc12.F[B-](F)(F)F (centres unmarked) | -57%
O=C(NC1CCCCC1)C1(c2ccccc2)CC1(Cl)Cl (centres unmarked) | 7.38%
CC(=O)Nc1ccc(C2(O)COc3ccccc3O2)cc1 (centres unmarked) | 12.3%
COc1ccc(C2=NNC(=O)CC2)cc1 | 18.6%
COc1cccc(NC(=O)CSc2nnc(C)s2)c1 | 9.39%

Structure (SMILES) | hERG current change (%, negative = inhibition) at 1uM
Cn1c(=O)c2c(nc(CN3CCOCC3)n2CC(=O)c2ccccc2)n(C)c1=O | 6.76%
O=C(NCCOc1ccc(Cl)cc1)c1ccco1 | 6.6%
CSCC[C@H](NC(=O)[C@H](Cc1ccccc1)n1c(=O)[nH]c2ccccc2c1=O)C(=O)N1CCC[C@@H]1C(=O)O | 18.1%
CCOC(=O)c1ccc(Nc2c(CC)c(C)nc3ncnn23)cc1 | 3.85%
CCn1c(=O)n(CC(=O)NCc2ccco2)c(=O)c2ccccc21 | 13.1%
COc1ccc(CC(=O)NC(CC(=O)O)c2ccc(OC)cc2)cc1 (centres unmarked) | 4.84%
CC(=O)c1ccc(NS(=O)(=O)c2ccc(CC(C)C)cc2)cc1 | 8.17%
CCn1c(=NC(=O)CSCC(=O)Nc2nccs2)sc2ccccc21 | 2.45%
O=C(O)CSc1nc2ccccc2n1-c1ccccc1 | 12.2%
O=C(C1=C[C@H](c2ccc(C(F)(F)F)cc2)C[C@H](OCCCCO)O1)N1CCN(Cc2ccccc2)CC1 | 4.78%
O=C(CSc1ccccc1)N1CCCC(N2CCN(c3cccc(Cl)c3)CC2)C1 (centres unmarked) | -17.6%
c1ccc2c(Nc3nncs3)c3ccccc3nc2c1 | 3.93%
CC(C)(C)NC(=O)c1cc(F)c(F)cc1Cl | 15.3%
FC(F)(F)c1ccc(CN2C[C@@H]3C(c4ccc(Cl)nc4)C4(c5cccnc5)CC3(C4)[C@H]2c2ccccc2)cc1 (some centres unmarked) | 3.04%
S=C1NCN(Cc2ccccc2)CN1C1CCCCC1 | 17.2%
COc1ccc2[nH]cc(C3N4CC5(C)CN3CC(C)(C4)C5=O)c2c1 (centres unmarked) | 9.35%
COc1ccc2c(-c3ccccc3)cc(SCC(=O)NC(N)=O)nc2c1 | 13.2%
O=C(NNC(=O)C1CC1)Nc1ccc(Cl)cc1 | 8.77%
O=C(CSc1ccc(S(=O)(=O)N2CCOCC2)cn1)Nc1ccc(OC(F)F)cc1 | 5.49%
CCOCCOC(=O)C1=C(C)N(C)C(=O)NC1c1ccccc1F (centres unmarked) | 10.8%
COc1ccc(CCNC(=S)N2CCN(S(=O)(=O)c3cccc(F)c3)CC2)cc1 | -0.622%
CCCN(c1nc(C)cc(OC)n1)S(=O)(=O)c1ccccc1 | 8.96%
COc1cccc(C(=O)N2CCN(S(=O)(=O)Cc3ccccc3)CC2)c1OC | 6.09%

Structure (SMILES) | hERG current change (%, negative = inhibition) at 1uM
O=c1nc(N/N=C/c2ccco2)cn[nH]1 | 14.5%
O=C(NC1CCCCC1)N(Cc1ccccc1)Cc1ccco1 | -0.633%
COC(=O)c1nn(-c2ccc(Cl)cc2)c(=O)cc1Sc1ccccn1 | -5.93%
CCOC(=O)c1c(N2C(=O)Nc3ccccc3N2O)n[nH]c1-c1cccc(Cl)c1 | 4.27%
Cc1cc(C)cc(N(CC(=O)Nc2ccc(C)cc2Cl)S(=O)(=O)c2c(C)[nH]c(=O)[nH]c2=O)c1 | 18.1%
Cc1ccc2c(c1)N(CCCC(=O)NCCC1=CCCCC1)C(=O)CO2 | 7.55%
CCCCc1nc(SCC(=O)N2CCCCC2)c2c(=O)n(C)c(=O)n(C)c2n1 | 8.92%
Cc1ccc(NC(=O)c2nc[nH]c2C(=O)N2CCC(C)CC2)cc1 | 11.3%
Cn1nc(-c2ccc(OCC(=O)Nc3cccnc3)cc2)c2ccccc2c1=O | -0.709%
c1ccc2sc(Cc3nnc4n3CCCCC4)nc2c1 | 1.69%
COCc1[nH]nc2c1C1(C(=O)Nc3ccc(F)cc31)C(C#N)=C(N)O2 (centres unmarked) | -0.547%
CC1(c2nnc(Cc3ccccc3)o2)CC(c2cccc(Cl)c2)=NO1 (centres unmarked) | 4.84%
CCc1cccc2sc(NC(=O)C3CC3)nc12 | 1.21%
COc1ccc(C(=O)Nc2ccc(S(=O)(=O)N3CCCCC3)cc2)cc1 | 6.08%
CC(C)CC(=O)Nc1ccc(C(=O)CN2CCC(C)CC2)cc1 | 5.4%
COc1ccc2nc(NC(=O)c3ccccc3O)sc2c1 | 16.6%
O=c1c(O)c(-c2cc(O)c(O)c(O)c2)oc2cc(O)cc(O)c12 | 14.6%
O=C(O)CCC(=O)NNC(=O)CCC(=O)NCc1ccccc1 | 12.5%
CCCCCCNC(=O)CNC(=S)N(Cc1cccs1)C1CCCCC1 | 14.6%
O=S(=O)(Nc1ccccc1F)c1ccc(Cl)nc1 | 3.81%
Cc1ccc(C)c(NC(=O)c2sc(Cl)nc2-c2ccccc2)c1 | 10.5%
O=C(Nc1ccc(F)c(F)c1)NC1CCCCC1 | 10.4%
CC(C)c1ccc(N2C(=O)C(Cl)=C(N3CCOCC3)C2=O)cc1 | 14.8%

Structure (SMILES) | hERG current change (%, negative = inhibition) at 1uM
COc1cccc(NC(=O)Nc2cccc(C(=O)O)c2)c1 | 16.4%
CCC(C)(C)NC(=O)C(c1cccc(OC)c1OC)N(CC(C)C)C(=O)CCC(=O)Nc1cc(C)on1 (centres unmarked) | 2.68%
COc1cccc(CCC(=O)Nc2cc3c(cc2C(=O)O)OCCCO3)c1OC | 8.98%
COC(=O)c1cc(OCC(=O)NC2CCCc3ccccc32)cc(C(=O)OC)c1 (centres unmarked) | 9.79%
COc1ccc(-c2csc(NC(=O)c3ccc(C(C)(C)C)cc3)c2C(=O)O)cc1 | 16.3%
NC(=O)c1c(NC(=O)CN2CCCC2)sc2c1CCCC2 | 7.12%
CCOC(=O)c1ccc(NC(=O)Nc2c(C)n(C)n(-c3ccccc3)c2=O)cc1 | 6.5%
CCOc1ccc(C(=O)NC(C(=O)NCCc2ccc(S(N)(=O)=O)cc2)C(C)C)cc1 (centres unmarked) | 6.18%
Cn1c(N)c(C(=O)COC(=O)/C=C/c2ccccc2Cl)c(=O)n(C)c1=O | 6.57%
COc1ccc2oc(C(=O)N(C)CCOc3ccccc3)c(C)c2c1 | 6.38%
CN(Cc1ccccc1)C(=O)c1cccc(NC(=O)c2ccco2)c1 | -0.649%
O=C(NC1C2CC3CC(C2)CC1C3)c1ccc(N2CCNCC2)c([N+](=O)[O-])c1 (centres unmarked) | 9.62%
Cc1c(C(=O)NC2CCN(Cc3ccccc3)C2)oc2ccc(Br)cc12 (centres unmarked) | 13.5%
CC(/C=C1\SC(=S)N(NC(=O)c2cccc(O)c2)C1=O)=C\c1ccccc1 | 13.6%
CCOc1ccc(C(=O)NCCC2=CCCCC2)cc1OCC | 9.23%
O=C(c1ccccc1NS(=O)(=O)c1cccc2cccnc12)N1CCOCC1 | 6.18%
Cc1cc(C)c(C)c(S(=O)(=O)N2CCN(c3ncnc4sc(C)c(C)c34)CC2)c1C | 11.8%
Cn1c(=O)c2c(nc(SCCN3CCCCC3)n2Cc2ccc(Cl)cc2)n(C)c1=O | -48.9%
COc1ccccc1NC(=O)c1ccc(NC(=O)CSc2n[nH]c(N)n2)cc1 | 7.54%
CCCc1cc(C(=O)OCC(=O)N(CCC)c2c(N)n(Cc3ccccc3)c(=O)[nH]c2=O)sc1C | 1.93%
